Test results reported in PubChem BioAssay AID1508642 (National Center for Advancing Translational Sciences (NCATS), 2021).
Among all 43,000 compounds or so, about 200 (0.47%) were called active. Another 12% or so got no clear call; they are omitted. Calls follow the shape of the dose curve; as a rule, active = well fitted cell-killing curve with a large enough effect; inconclusive = small, poorly fitted or top-dose-only effect, or effect the other way; inactive = flat fitted curve, though single readings scatter. The list shows a part of the results.

Experiment: Cell viability qHTS assay in S16 Pmp22-F2sN cells; also: nearly all actives have a fitted effect of over 65% in size
Conditions: S16 Pmp22-F2sN Schwann cells (luciferase reporters placed in the Pmp22 gene) viability, CellTiter-Glo, 24 h; series mostly up to 57.5 µM; activity change, negative = cytotoxicity: at the top concentration
Outline: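 CellTiter-Glo counter-screen, qHTS, 1536-well. Cells: S16(c9) Pmp22-F2sN, 500-1,000/well in DMEM + 10% FBS. Cpd 23 nL pin transfer, 24 h, 37C/5% CO2. Read: luminescence, CCD imager.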
% is scaled to controls: 0 for no effect and ±100 for the full control effect.

SMILES	activity change, negative = cytotoxicity
CCc1ccccc1NCc1nnc2n1CCCCC2	inactive: -1.57%
O=C1COc2cc(S(=O)(=O)CCC(=O)N3CCN(c4ccccc4F)CC3)c(Cl)cc2N1	inactive: 9.16%
CCc1cccc(CC)c1NC(=O)Cn1c(=O)c(-c2cc(C)ccc2NC(C)=O)nc2ccccc21	inactive: 1.35%
CCCc1cc(N2CCN(c3ccccc3)CC2)n2cnnc2n1	inactive: -28.6%
CCc1ccc(CN(Cc2ccco2)c2cnc(S(C)(=O)=O)nc2C(=O)Nc2c(C)cccc2C)cc1	inactive: -3.49%
COc1cccc(NS(=O)(=O)c2ccc3c(c2)[C@H]2C=CC[C@H]2[C@@H](c2ccccc2Cl)N3)c1	inactive: -16.2%
Cc1[nH]c2ccccc2c1C(c1ccccc1)c1ccc(Cl)s1 (centres undefined)	inactive: 5.07%
CCOc1ccccc1NC(=O)CCn1cnnn1	inactive: 8.19%
COc1cccc(CNC(=O)Cc2ccc(NC(=O)N3CCSc4ncccc43)cc2)c1OC	inactive: -6.06%
Cc1cccn2c(Nc3ccccc3)c(-c3cccs3)nc12	inactive: -5.47%
CCN(CC)CCNC(=O)CSc1nc2nc(C)c(Cc3ccccc3)c(C)n2n1	inactive: 3.96%
CCOc1ccc(CNC(=O)c2cnc3sc(N4CCOCC4)nn3c2=O)cc1OC	inactive: 2.47%
Cc1cccc(N2CCN(C(=O)CN3C(=O)COc4ccc(S(=O)(=O)N5CCC(C)CC5)cc43)CC2C)c1 (centres undefined)	inactive: 3.39%
CC(C)c1nc2ccc(C(=O)NCCCN3CCN(c4cccc(Cl)c4)CC3)cc2o1	inactive: -21.7%
CCOC(=O)N1CCN(Cc2nc3cc([N+](=O)[O-])ccc3n2C(C)C)CC1	inactive: -16.6%
Cc1cccc(N2CCN(C(=O)C3CCCN(S(=O)(=O)c4ccc(Br)s4)C3)CC2)c1C (centres undefined)	inactive: -13.7%
CCOC(=O)C1CCC(CN(Cc2ccc(Cl)cc2)S(=O)(=O)c2cc(Cl)cc(Cl)c2)CC1 (centres undefined)	inactive: 0.482%
Cn1c(=O)c2c(SCC(=O)NCc3ccco3)nc(-c3cccc(F)c3)nc2n(C)c1=O	inactive: 2.57%
Cc1ccc(S(=O)(=O)c2cn(CC(=O)Nc3ccccc3C)c3cc4c(cc3c2=O)OCO4)cc1	inactive: -0.454%
CCOc1ccc(CC(=O)Nc2c(C(=O)Nc3ccc(OC)cc3OC)oc3ccccc23)cc1	inactive: 1.83%
NS(=O)(=O)c1ccc(CCNC(=O)c2ccc3nc(CCc4ccccc4)oc3c2)cc1	inactive: 5.29%
Cc1cc2c(cc1S(=O)(=O)N(C)CC(=O)Nc1ccc(C#N)cc1)OCC(=O)N2	inactive: 20.9%
CCOC(=O)c1c(S(=O)(=O)NCC(=O)Nc2ccc(C)c(N(C)C)c2)c(C)n(C)c1C	inactive: 13%
COc1ccc(-c2nc3cc(C)ccn3c2NC(=O)c2ccc(F)cc2)cc1	inactive: 20.5%

SMILES	activity change, negative = cytotoxicity
COc1ccc(CCNC(=O)c2cccc(-n3cnc4cccnc43)c2C)cc1OC	inactive: 9.54%
CC(CNC(=O)CN1C(=O)COc2ccc(S(=O)(=O)N3CCCCCC3)cc21)c1ccccc1 (centres undefined)	inactive: 6.64%
CCCCNC(=O)c1nn(-c2ccc(C)cc2)c(=O)n(C)c1=O	inactive: 14.2%
Cc1ccc(Cl)cc1NC(=O)C1CCCN(S(=O)(=O)c2cccc3cccnc23)C1 (centres undefined)	inactive: -17.6%
CCC(=O)N1CCc2cc(Br)cc(S(=O)(=O)N3CCCC(C(=O)Nc4cccc(C)c4C)C3)c21 (centres undefined)	inactive: 4.5%
Cc1ccccc1NC(=O)c1c(NC(=O)c2ccco2)sc2c1CCC(C(C)(C)C)C2 (centres undefined)	inactive: -2.47%
COc1ccccc1CNC(=O)CSc1nc2nc(C)c(Cc3ccccc3Cl)c(C)n2n1	inactive: -22.4%
COc1ccc(N2C(=O)CS(=O)(=O)C23C(=O)N(Cc2ccc(F)cc2)c2ccc(C)cc23)cc1 (centres undefined)	inactive: -5.1%
CCOC(=O)c1c(S(=O)(=O)N2CCCC(C(=O)Nc3cccc(C#N)c3)C2)c(C)n(C)c1C (centres undefined)	inactive: 2.17%
Cc1ccccc1CNC(=O)c1cccc(NC(=O)N2CCSc3ncccc32)c1	inactive: 6.91%
CC(Oc1ccccc1)C(=O)Nc1ccc(OCc2cc(=O)n3ccsc3n2)cc1 (centres undefined)	inactive: 1.73%
O=C(Cn1c(=O)c2ccccc2n(CC(=O)Nc2ccc(Cl)cc2)c1=O)NCCc1ccccc1	inactive: -21.3%
CCCCN(C)CCNC(=O)C1CCCN(S(=O)(=O)c2ccc3c(c2)oc(=O)n3C)C1 (centres undefined)	inactive: -7.5%
Cc1c(CCNC(=O)Cc2ccc(F)cc2)sc2nc(-c3ccc(F)cc3)nn12	inactive: -20.8%
CCc1ccccc1NC(=O)Cn1c(=O)n(CCCS(=O)(=O)C2CCCCC2)c(=O)c2ccccc21	inactive: 3.7%
COc1ccc(C(=O)Oc2c(Sc3ccc(Cl)cc3)c(C)nn2C(C)(C)C)cc1OC	inactive: -3.54%
COc1ccc(NC(=O)CCCn2c(=O)c3cccn3c3ccccc32)c(OC)c1	inactive: -18.8%
O=C(NCCc1csc(-c2ccc(C(F)(F)F)cc2)n1)C(=O)Nc1cc(F)ccc1F	inactive: 11.3%
CCOC(=O)c1[nH]c(C)c(CCC(=O)Nc2ccc(C(C)=O)cc2)c1C	inactive: 0.522%
Cc1ccccc1NS(=O)(=O)c1nnc(NC(=O)c2ccc(Cl)cc2)s1	inactive: 0.906%
Cc1cccc(CNS(=O)(=O)c2csc(C(N)=O)c2)c1	inactive: -6.76%
CCOc1cccc(CNCCNC(=O)c2nonc2N)c1	inactive: 3.58%
O=C1C(c2cccc(Br)c2)N(CCc2ccccc2)C(=O)CN1C1CCCCC1 (centres undefined)	inactive: -2.3%
CCOc1ccc(C(=O)Nc2cccc(OCc3cc(=O)n4ccccc4n3)c2)cc1	inactive: -1.78%

SMILES	activity change, negative = cytotoxicity
CCOC(=O)c1cnc2c(C)cc(C)cc2c1NCCc1ccc(OC)c(OC)c1	inactive: 4.22%
Cc1ccc(Cl)cc1-n1c(=O)c2sc3ccccc3c2n(CC(=O)NC2CCCCC2)c1=O	inactive: -6.73%
COc1ccc(CNC(=O)Cn2c(=O)oc3cc(S(=O)(=O)N4CCC(C)CC4)ccc32)cc1	inactive: -20.1%
Cc1cccc(C)c1NC(=O)c1nc(S(C)(=O)=O)ncc1N(Cc1ccc(F)cc1)Cc1ccco1	inactive: 2.04%
O=c1c2sc3ccccc3c2n(Cc2ccccc2Cl)c(=O)n1Cc1ccccc1	inactive: -4.98%
Cc1ccc(C)n1-c1c(C(=O)NCC(C)c2ccccc2)sc2ncccc12 (centres undefined)	inactive: -19.9%
Cc1cc(-c2ccc(C)c(S(=O)(=O)Nc3ccccc3C(F)(F)F)c2)on1	inactive: -2.94%
COc1ccc(C(=O)N(Cc2ccc(N(C)C)cc2)Cc2ccco2)cc1Cl	inactive: 6.64%
COc1ccccc1CNC(=O)C1CCN(S(=O)(=O)c2c(C)noc2/C=C/c2c(C)cc(C)cc2C)CC1	inactive: 4.51%
O=C(Nc1ccc2nc(SCCOc3ccccc3)sc2c1)c1cccs1	inactive: 1.6%
CN1CCN(C(=O)c2ccc3c(c2)N(Cc2cccc(Cl)c2)C(=O)c2ccccc2S3(=O)=O)CC1	inactive: 1.49%
COc1cccc(CNC(=O)CSc2ncc3c(n2)-c2cc(Cl)ccc2N(C)S3(=O)=O)c1	inactive: 4.9%
CCc1ccc(NC(=O)c2ccc(F)c(S(=O)(=O)NC3CCCCCC3)c2)cc1	inactive: -21.2%
Cc1coc2c(C)c3oc(=O)c(CC(=O)NCc4ccccc4)c(C)c3cc12	inactive: -13.6%
Cc1c(Cl)cccc1NC(=O)CN1C(=O)COc2ccc(S(=O)(=O)N3CCCCCC3)cc21	inactive: -1.4%
O=C(CCC1CCCC1)N1CCc2c([nH]c3ccccc23)C1c1ccc(Cl)cc1 (centres undefined)	inactive: -11%
Cc1ccc(-n2nnc(-c3nsc(NC(=O)c4ccccc4)n3)c2C)cc1	inactive: -0.56%
CCc1cccc(C)c1NS(=O)(=O)c1cc(-c2cc(C)no2)ccc1C	inactive: -3.24%
CCOc1ccc(OCC(=O)NCCS(=O)(=O)N2CCN(c3ccc(F)cc3)CC2)cc1	inactive: -7.82%
Cc1ccc(-n2nc3ccc(NC(=O)c4oc5ccc(C)cc5c4C)cc3n2)cc1	inactive: 7.59%
CCOC(=O)C1CCCN(S(=O)(=O)c2ccc(N3CCCCS3(=O)=O)cc2)C1 (centres undefined)	inactive: -12.6%
Cc1cc(C(F)F)n2nc(C(=O)Nc3cc(Cl)ccc3C)nc2n1	inactive: 0.454%
O=C(Nc1ccccc1F)c1nc(SCc2ccc(F)cc2)ncc1Cl	inactive: 11.2%
CCCOc1ccccc1C(=O)N1CCCCC1CCN1CCOCC1 (centres undefined)	inactive: 15.4%

SMILES	activity change, negative = cytotoxicity
CCN(C(=O)Cn1ncc2c(=O)oc3ccc(C)cc3c21)c1cc(OC)ccc1OC	inactive: 0.207%
Cc1cc(C)cc(-n2c(SCC(=O)NCc3ccco3)nc3c([nH]c4ccccc43)c2=O)c1	inactive: 5.15%
CC(C)NC(=O)CCn1c(SCc2c(F)cccc2Cl)nc2c(sc3ccccc32)c1=O	inactive: -1.86%
CCCCn1c(SCC(=O)Nc2cccc(OC)c2)nc2c(sc3ccccc32)c1=O	inactive: -3.14%
COc1ccccc1N1CCN(C(=O)C2CCN(S(=O)(=O)c3c(C)noc3/C=C/c3ccc(C)cc3)CC2)CC1	inactive: 6.97%
Cc1cccc(Cc2cnc(NC(=O)C3Cc4ccc(C)cc4C(=O)O3)s2)c1 (centres undefined)	inactive: -0.259%
CCOC(=O)c1cc(-c2ccc(C)cc2)n(CCC(=O)Nc2nc3c(C)cccc3s2)c1C	inactive: -3.21%
Cc1cc(-n2c(SCC(=O)NCc3ccccc3)nc3ccsc3c2=O)ccc1Cl	inactive: -3.82%
COc1ccc(NC(=O)NCCc2c(C)nn(C)c2C)c(OC)c1	inactive: 11.8%
O=C(c1ccc2c(c1)N(Cc1ccccc1)C(=O)c1ccccc1S2(=O)=O)N1CCCC1	inactive: 4.43%
CCC(Sc1nc2c(sc3ccccc32)c(=O)n1CCc1ccccc1)C(=O)N(CC)CC (centres undefined)	inactive: 6.8%
CCCCCC(=O)N1c2ccccc2C(C)(c2ccccc2)CC1(C)C (centres undefined)	inactive: 6.08%
O=C(c1ccccc1Br)N(Cc1ccco1)C1CCS(=O)(=O)C1 (centres undefined)	inactive: 6.69%
COc1ccc(Cn2c(C(=O)O)c(CNCC(C)c3ccccc3)c3ccc(OC)cc32)cc1 (centres undefined)	inactive: -10.9%
COc1ccc(NC(=O)CN2C(=O)C(c3ccc(C(C)(C)C)cc3)=NC2(C)C)cc1Cl	inactive: -0.822%
COc1cccc(CCNC(=O)Cn2c(-c3cccs3)cc3ccccc32)c1	inactive: 6.87%
CC(=O)c1ccc(N2CCN(c3ccc(NC(=O)c4cccs4)cc3C(=O)O)CC2)cc1	inactive: -2.36%
Cc1ccc(NC(=O)CSc2nnc3nc(C)cc(C)n23)cc1	inactive: -16.5%
O=c1c2ccccc2n2c(-c3ccccc3O)nnc2n1Cc1ccc(F)cc1	inactive: -0.915%
Cc1cccc(Cn2ccn(Cc3ccc(Cl)cc3)c(=O)c2=O)c1	inactive: 1.76%
CCN(CC)C(=O)c1sc(NC(=O)c2nc3ncccn3n2)c(C(=O)OC)c1C	inactive: -9.66%
CCOC(=O)c1ccccc1NC(=O)NC(C)c1c(-n2cccc2)sc(C)c1C (centres undefined)	inactive: -4.35%
